Laboratory results reported in the supplement of paper PMC11417369.
± gives the standard deviation of the averaged measurements. Some of the results follow.

test system: PfAP2-G AP2 domain (GST-tagged); test: gcPBM binding intensity (ln(normalized median fluorescence intensity)); higher = stronger DNA binding
Procedure, shortened: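 Probes on an Agilent 4 × 180k array were primer-extended, double-stranded and 36 bp long, taken from intergenic genomic regions, with negative controls added. GST-tagged P. falciparum DNA-binding domains from E. coli, about 25 μg on average, were applied to the array for 1 h in 1× PBS containing 1% milk, 0.2 mg/ml BSA, 0.5% salmon testes DNA and 0.03% Triton X-100. Binding intensity, obtained after Alexa488 anti-GST antibody detection and a 488 nm scan, is the highest Masliner-normalised natural-log median intensity across replicate spots of either probe orientation.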

Question: “GAAAAAATTTTATGGTGTACTTTATTTATTTATATA [XGTACX_site6323]” was tested. Which “gcPBM binding intensity (ln)” value did it give?
Answer: Its value is 11.5 ± 1.

Question: Which “gcPBM binding intensity (ln)” value does the source give for “GGAAAGACAGTTCACAGTACCCAGTAAACTCTACGG [XGTACX_site2557]” here?
Answer: Its value is 10.6 ± 0.47.

Question: For “AAAATATAGTAATATATATATGTATATTATTTGTGG [CACACA_negctrl_site1590]”, which “gcPBM binding intensity (ln)” value is on record?
Answer: Its value is 9.6 ± 0.22.

Question: With “TTATTACATGTTACTTAACACACATCTGGTGAAATA [CACACA_site7939]” as the sequence, how does the “gcPBM binding intensity (ln)” value read?
Answer: Its value is 9.98 ± 0.014.

Question: How did the “gcPBM binding intensity (ln)” value turn out when “AAAATAAATAAATAAATAAATATATATATATATATA [XGTACX_negctrl_site345]” was run?
Answer: Its value is 9.72 ± 0.23.

Question: For “TATAGGTATATATTATGTACTTATAATTATATAGAT [XGTACX_site1912]”, which “gcPBM binding intensity (ln)” value is on record?
Answer: Its value is 11.3 ± 0.74.

Question: With “ATATATAATATTTTTATTTTTATTTTTTTTTTATGA [TGCATGCA_negctrl_site577]” as the sequence, how does the “gcPBM binding intensity (ln)” value read?
Answer: Its value is 9.28 ± 0.21.

Question: Which “gcPBM binding intensity (ln)” value does the source give for “ATTAAGTTCAAATGTAGTACGTGTAAAAAAAAAAAA [XGTACX_site1578]” here?
Answer: Its value is 11.4 ± 0.83.

Question: With “TACCATGTTCAAATTACACACATATAATGTAATATA [CACACA_site5150]” as the sequence, how does the “gcPBM binding intensity (ln)” value read?
Answer: Its value is 10.1 ± 0.18.

Question: How did the “gcPBM binding intensity (ln)” value turn out when “TTTATATATGTAAATGCACACATATGTGTATATACT [CACACA_site8493]” was run?
Answer: The value was 10.3 ± 0.3.

Question: How did the “gcPBM binding intensity (ln)” value turn out when “TTTTTTTTTTTTTTTATAAAAGATAATTTTTTTTTA [CACACA_negctrl_site133]” was run?
Answer: The value was 9.38 ± 0.2.

Question: “CATTTATATTATAAATGTACAAAGTTCGTTTGTTCC [XGTACX_site1305]” was tested. Which “gcPBM binding intensity (ln)” value did it give?
Answer: Its value is 10.7 ± 0.3.

Question: Which “gcPBM binding intensity (ln)” value does the source give for “TTGTATATATATGGAAAAATATATATATATATATAT [GTGCAC_negctrl_site591]” here?
Answer: The value was 10.3 ± 0.83.

Question: Which “gcPBM binding intensity (ln)” value does the source give for “TTTATTTATAGACACACACACAAAAAAAAAAAAAAA [CACACA_site7280]” here?
Answer: The value was 10 ± 0.62.

Question: Which “gcPBM binding intensity (ln)” value does the source give for “ATACGATTGAAACATTGTACATGAATATAAAAAAAT [XGTACX_site5704]” here?
Answer: The value was 10.8 ± 0.51.

Question: How did the “gcPBM binding intensity (ln)” value turn out when “TGTCTTTAAATTTCTCAACACACAGTTATAAAAAAT [CACACA_site8930]” was run?
Answer: Its value is 9.94 ± 0.099.

Question: “GGGTCAAGTAAGCTGTTCCTCTTTTTCTTTCTCACT [GTGCAC_negctrl_site473]” was tested. Which “gcPBM binding intensity (ln)” value did it give?
Answer: Its value is 10.16 ± 0.057.

Question: “TATAAATTTAAAATGACACACACTAATATTATTTAA [CACACA_site8334]” was tested. Which “gcPBM binding intensity (ln)” value did it give?
Answer: The value was 10.1 ± 0.11.

Question: For “TTCTAAAAAAATAAAATTATCAAGGTTTTTAAACGT [CACACA_negctrl_site308]”, which “gcPBM binding intensity (ln)” value is on record?
Answer: The value was 9.71 ± 0.071.

Question: TAAACGTTAGTATGTGTGCACATTAGTAATTTAAAA was tested. Which “gcPBM binding intensity (ln)” value did it give?
Answer: The value was 10.5 ± 0.3.

Question: How did the “gcPBM binding intensity (ln)” value turn out when “TTTTTATTATTCTTAAGGATATAACAAAAAAGAAAA [XGTACX_negctrl_site584]” was run?
Answer: Its value is 9.87 ± 0.21.

Question: “ATTAATATTATTAGAAGTACTAATAGTAGTATAACT [XGTACX_site1325]” was tested. Which “gcPBM binding intensity (ln)” value did it give?
Answer: The value was 11.2 ± 0.74.

Question: “TAAATAAATATATATTCACACACAAACATATATATA [CACACA_site9332]” was tested. Which “gcPBM binding intensity (ln)” value did it give?
Answer: Its value is 9.94 ± 0.23.

Question: For “TCTTCATAAAAATAAAGTACATTATATATATAAATA [XGTACX_site3775]”, which “gcPBM binding intensity (ln)” value is on record?
Answer: The value was 11.3 ± 0.98.

Question: Which “gcPBM binding intensity (ln)” value does the source give for “TCAAAGCACACATACACACACATATAGATTTATATA [CACACA_site6272]” here?
Answer: The value was 10 ± 0.12.

Question: “AAAATATAAATCTAAGCATGCAAAAAAAATTTATAA [TGCATGCA_site1008]” was tested. Which “gcPBM binding intensity (ln)” value did it give?
Answer: The value was 9.705 ± 0.064.

Question: Which “gcPBM binding intensity (ln)” value does the source give for “TATTGTTTTAAAGAGACATGCAATATATATTATTCC [TGCATGCA_site752]” here?
Answer: The value was 9.775 ± 0.078.

Question: Which “gcPBM binding intensity (ln)” value does the source give for “GCATCCCTTTTTATGTGTACATACAAAGGCAATTAC [XGTACX_site6977]” here?
Answer: Its value is 11.3 ± 0.8.

Question: Which “gcPBM binding intensity (ln)” value does the source give for “TTATTTAAAAAAAAGTGTACCCATATATTATAAATC [XGTACX_site8374]” here?
Answer: The value was 11.5 ± 0.91.

Question: Which “gcPBM binding intensity (ln)” value does the source give for “TTTTTATTCGATGATCAAATAGGTATATACAAAAAA [CACACA_negctrl_site1813]” here?
Answer: Its value is 10.2 ± 0.31.

Question: With “AATAATAATAGTAATATGTACATATATATATATATA [TGCATGCA_negctrl_site542]” as the sequence, how does the “gcPBM binding intensity (ln)” value read?
Answer: Its value is 11.2 ± 0.67.

Question: “TATAAGCAAAAACACACACACATATATATATATATA [CACACA_site3804]” was tested. Which “gcPBM binding intensity (ln)” value did it give?
Answer: The value was 10.1 ± 0.7.

Question: With “AAATGAAATTTGTATACACACAAATATATATATATA [CACACA_site836]” as the sequence, how does the “gcPBM binding intensity (ln)” value read?
Answer: Its value is 10.1 ± 0.32.

Question: With “TAATATTATAGATAAACACACATACACATGTAAATA [CACACA_site7049]” as the sequence, how does the “gcPBM binding intensity (ln)” value read?
Answer: Its value is 10.1 ± 0.071.

Question: How did the “gcPBM binding intensity (ln)” value turn out when “ATTATTAAGTTTCACAAGAACATTGTTAACAATTTT [CACACA_negctrl_site1128]” was run?
Answer: Its value is 9.935 ± 0.007.

Question: How did the “gcPBM binding intensity (ln)” value turn out when “TATTAAGTATTTTACGTACACACTTATAAATGTACA [CACACA_site3885]” was run?
Answer: The value was 11.7 ± 0.82.

Question: “TGCATGCATTATCATAGTACATATAATGTTGTATAA [XGTACX_site2775]” was tested. Which “gcPBM binding intensity (ln)” value did it give?
Answer: Its value is 10.7 ± 0.45.

Question: Which “gcPBM binding intensity (ln)” value does the source give for “TAATCTTTCGTACATGTACACACAGAAAAAAAAAAA [CACACA_site8798]” here?
Answer: Its value is 11.8 ± 1.3.

Question: With “CTGAACCCGTTATGGTGTACATAAAATAAGACACAG [XGTACX_site3484]” as the sequence, how does the “gcPBM binding intensity (ln)” value read?
Answer: The value was 11.6 ± 0.96.

Question: For “ATTACATGCAATATATGTACGTAATATATATATATA [XGTACX_site2300]”, which “gcPBM binding intensity (ln)” value is on record?
Answer: Its value is 11.4 ± 0.86.

Question: With “AATTTATATTTTCGTAGTACGTATTTTATTCTTTTG [XGTACX_site4162]” as the sequence, how does the “gcPBM binding intensity (ln)” value read?
Answer: Its value is 11.4 ± 0.8.

Question: How did the “gcPBM binding intensity (ln)” value turn out when “TATAAGGTGTCCTATACACACTCCAATAGATATATA [CACACA_site7066]” was run?
Answer: Its value is 10.5 ± 0.42.

Question: How did the “gcPBM binding intensity (ln)” value turn out when “ACAGAATATTTAATTCAACACACATACATATTTATT [CACACA_site8734]” was run?
Answer: Its value is 9.96 ± 0.11.

Question: Which “gcPBM binding intensity (ln)” value does the source give for “ATTTATATCCTTAAACGTACATTGTATTGTATTTTA [XGTACX_site6080]” here?
Answer: The value was 11.1 ± 0.58.

Question: With “AAAAAAAAAAAGTACACACATACATATAAATATATA [CACACA_site1809]” as the sequence, how does the “gcPBM binding intensity (ln)” value read?
Answer: Its value is 11.6 ± 0.95.

Question: With AAAGACGCAAAATTGGTGCGCTGCTTTTAGCATTTT as the sequence, how does the “gcPBM binding intensity (ln)” value read?
Answer: The value was 9.9 ± 0.12.

Question: For “AATAATCATGATCAAAGTACTTATGAATACCAAAAA [XGTACX_site2572]”, which “gcPBM binding intensity (ln)” value is on record?
Answer: Its value is 11 ± 0.61.

Question: How did the “gcPBM binding intensity (ln)” value turn out when “ATTAAAAAATTATTCACACAAAATAAAAAAATGAAA [CACACA_site4918]” was run?
Answer: The value was 10 ± 0.11.

Question: Which “gcPBM binding intensity (ln)” value does the source give for “TACACATAATATAATGCATGTGTGATGTATGTTTAA [TGCATGCA_site697]” here?
Answer: The value was 9.935 ± 0.078.

Question: For “ATATTTAGGATTATCTGTACATAATATGTTTAATTA [XGTACX_site3426]”, which “gcPBM binding intensity (ln)” value is on record?
Answer: Its value is 10.9 ± 0.71.

Question: How did the “gcPBM binding intensity (ln)” value turn out when “TGATAACCTAATAATACACACACATGAATATATATA [CACACA_site8226]” was run?
Answer: Its value is 9.97 ± 0.18.

Question: How did the “gcPBM binding intensity (ln)” value turn out when “GTCGCCAAAAGGTGTACACATAATGCATTATCATAA [CACACA_site6112]” was run?
Answer: The value was 11.7 ± 0.88.

Question: “TAAAAAAAATAGCATACACACATATATACATATATA [CACACA_site658]” was tested. Which “gcPBM binding intensity (ln)” value did it give?
Answer: Its value is 9.73 ± 0.16.

Question: Which “gcPBM binding intensity (ln)” value does the source give for “TTGTATTCCTTTTACAACTACCATGAAGAGAATTTT [CACACA_negctrl_site1286]” here?
Answer: Its value is 10.1 ± 0.2.

Question: “AAAATTATTTTTATGTGTACTTATTTATTATTTATA [XGTACX_site6665]” was tested. Which “gcPBM binding intensity (ln)” value did it give?
Answer: Its value is 11.4 ± 0.86.

Question: With “TTTTATTTTTTCCGACGTACATCCATTATATATAAT [XGTACX_site4469]” as the sequence, how does the “gcPBM binding intensity (ln)” value read?
Answer: The value was 11.5 ± 0.91.
